# Experimental data: the supplement of paper PMC8728848
# Some of the results follow.
# B1: AAA (Anguilla anguilla), Q7SIC1 (protein)
# chain: VIPEGYTQENVAVRGKATQSAQLRGEHAANSEASNAIDGNRDSNFYHGSCTHSSGQANPWWRVDLLQVYTITSVTITNRGDCCGERISGAEINIGQHLASNGVNNPECSVIGSMATGETKTFHCPAPMIGRYVVTYLPTSESLHLCEVEVNVDKPAAA
# What was measured:
# Assay in all cases: glycan array binding signal (z-score within array); higher = stronger binding
# Conditions in all cases: glycan notation: IUPAC condensed, linker removed
# [1] = biological target: GlcNAc(b1-3)Gal(b1-4)GlcNAc(b1-6)[GlcNAc(b1-3)Gal(b1-3)]GalNAc
# Method in brief: (§1)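 The binding signal is a Z-score computed within each array and averaged over linkers. Arrays of the same protein sequence at different concentrations or buffers were also averaged together. Data originate from 3228 arrays in the Consortium for Functional Glycomics database, kept only where the protein sequence was available.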
# [2] = biological target: GlcNAc(b1-3)Gal(b1-4)GlcNAc(b1-6)[GlcNAc(b1-3)]Gal(b1-4)GlcNAc
# Method in brief: as §1
# GlcNAc(b1-3)GalNAc = biological target: GlcNAc(b1-3)GalNAc
# Method in brief: as §1
# GlcNAc(b1-3)Man = biological target: GlcNAc(b1-3)Man
# Method in brief: as §1
# [3] = biological target: GlcNAc(b1-3)[GlcNAc(b1-4)][GlcNAc(b1-6)]GlcNAc
# Method in brief: as §1
# [4] = biological target: GlcNAc(b1-3)[GlcNAc(b1-6)]Gal(b1-4)GlcNAc
# Method in brief: as §1
# [5] = biological target: GlcNAc(b1-3)[GlcNAc(b1-6)]GalNAc
# Method in brief: as §1
# [6] = biological target: GlcNAc(b1-3)[GlcNAc(b1-6)]GlcNAc
# Method in brief: as §1
# [7] = biological target: GlcNAc(b1-4)Gal(b1-4)GlcNAc
# Method in brief: as §1
# GlcNAc(b1-4)GlcNAc = biological target: GlcNAc(b1-4)GlcNAc
# Method in brief: as §1
# [8] = biological target: GlcNAc(b1-4)GlcNAc(b1-4)GlcNAc
# Method in brief: as §1
# [9] = biological target: GlcNAc(b1-4)GlcNAc(b1-4)GlcNAc(b1-4)GlcNAc(b1-4)GlcNAc
# Method in brief: as §1
# [10] = biological target: GlcNAc(b1-4)GlcNAc(b1-4)GlcNAc(b1-4)GlcNAc(b1-4)GlcNAc(b1-4)GlcNAc
# Method in brief: as §1
# [11] = biological target: GlcNAc(b1-4)[GlcNAc(b1-6)]GalNAc
# Method in brief: as §1
# [12] = biological target: GlcNAc(b1-6)Gal(b1-4)GlcNAc
# Method in brief: as §1
# GlcNAc(b1-6)GalNAc = biological target: GlcNAc(b1-6)GalNAc
# Method in brief: as §1
# [13] = biological target: GlcNAc6S(b1-3)Gal(b1-4)GlcNAc
# Method in brief: as §1
# Kdn(a2-3)Gal(b1-3)GalNAc = biological target: Kdn(a2-3)Gal(b1-3)GalNAc
# Method in brief: as §1
# Kdn(a2-3)Gal(b1-3)GlcNAc = biological target: Kdn(a2-3)Gal(b1-3)GlcNAc
# Method in brief: as §1
# Kdn(a2-3)Gal(b1-4)Glc = biological target: Kdn(a2-3)Gal(b1-4)Glc
# Method in brief: as §1
# Kdn(a2-3)Gal(b1-4)GlcNAc = biological target: Kdn(a2-3)Gal(b1-4)GlcNAc
# Method in brief: as §1
# [14] = biological target: Kdn(a2-3)Gal(b1-4)[Fuc(a1-3)]GlcNAc
# Method in brief: as §1
# Kdn(a2-6)Gal(b1-4)GlcNAc = biological target: Kdn(a2-6)Gal(b1-4)GlcNAc
# Method in brief: as §1
# [15] = biological target: Man(a1-2)Man(a1-2)Man(a1-3)Man
# Method in brief: as §1
# [16] = biological target: Man(a1-2)Man(a1-2)Man(a1-3)[Man(a1-2)Man(a1-3)[Man(a1-2)Man(a1-6)]Man(a1-6)]Man(b1-4)GlcNAc(b1-4)GlcNAc
# Method in brief: as §1
# [17] = biological target: Man(a1-2)Man(a1-2)Man(a1-3)[Man(a1-2)Man(a1-6)[Man(a1-3)]Man(a1-6)]Man(b1-4)GlcNAc(b1-4)GlcNAc
# Method in brief: as §1
# [18] = biological target: Man(a1-2)Man(a1-2)Man(a1-6)[Man(a1-3)]Man
# Method in brief: as §1
# Man(a1-2)Man(a1-3)Man = biological target: Man(a1-2)Man(a1-3)Man
# Method in brief: as §1
# [19] = biological target: Man(a1-2)Man(a1-3)[Man(a1-2)Man(a1-6)]Man
# Method in brief: as §1
# [20] = biological target: Man(a1-2)Man(a1-3)[Man(a1-2)Man(a1-6)]Man(a1-6)[Man(a1-2)Man(a1-2)Man(a1-3)]Man
# Method in brief: as §1
# [21] = biological target: Man(a1-2)Man(a1-3)[Man(a1-2)Man(a1-6)]Man(a1-6)[Man(a1-2)Man(a1-2)Man(a1-3)]Man(b1-4)GlcNAc(b1-4)GlcNAc
# Method in brief: as §1
# [22] = biological target: Man(a1-2)Man(a1-3)[Man(a1-3)[Man(a1-6)]Man(a1-6)]Man(b1-4)GlcNAc(b1-4)GlcNAc
# Method in brief: as §1
# [23] = biological target: Man(a1-2)Man(a1-3)[Man(a1-6)]Man(a1-6)[Man(a1-2)Man(a1-3)]Man(b1-4)GlcNAc(b1-4)GlcNAc
# Method in brief: as §1
# [24] = biological target: Man(a1-2)Man(a1-6)[Man(a1-3)]Man(a1-6)[Man(a1-2)Man(a1-2)Man(a1-3)]Man
# Method in brief: as §1
# [25] = biological target: Man(a1-2)Man(a1-6)[Man(a1-3)]Man(a1-6)[Man(a1-2)Man(a1-2)Man(a1-3)]Man(b1-4)GlcNAc(b1-4)GlcNAc
# Method in brief: as §1
# Man(a1-3)[Man(a1-6)]Man = biological target: Man(a1-3)[Man(a1-6)]Man
# Method in brief: as §1
# [26] = biological target: Man(a1-3)[Man(a1-6)]Man(a1-6)[Man(a1-2)Man(a1-3)]Man(b1-4)GlcNAc(b1-4)GlcNAc
# Method in brief: as §1
# [27] = biological target: Man(a1-3)[Man(a1-6)]Man(a1-6)[Man(a1-3)]Man
# Method in brief: as §1
# [28] = biological target: Man(a1-3)[Man(a1-6)]Man(a1-6)[Man(a1-3)]Man(b1-4)GlcNAc(b1-4)GlcNAc
# Method in brief: as §1
# [29] = biological target: Man(a1-3)[Man(a1-6)]Man(b1-4)GlcNAc(b1-4)GlcNAc
# Method in brief: as §1
# [30] = biological target: Man(a1-3)[Man(a1-6)]Man(b1-4)GlcNAc(b1-4)[Fuc(a1-6)]GlcNAc
# Method in brief: as §1
# Man(a1-6)Man = biological target: Man(a1-6)Man
# Method in brief: as §1
# Man(b1-4)GlcNAc = biological target: Man(b1-4)GlcNAc
# Method in brief: as §1
# MurNAc(b1-4)GlcNAc = biological target: MurNAc(b1-4)GlcNAc
# Method in brief: as §1
# Neu5Ac(a2-3)Gal = biological target: Neu5Ac(a2-3)Gal
# Method in brief: as §1
binder,measurement,setting,value
B1,glycan array binding signal (z-score),[1],-0.107
same,glycan array binding signal (z-score),[2],0.799
same,glycan array binding signal (z-score),GlcNAc(b1-3)GalNAc,-0.105
same,glycan array binding signal (z-score),GlcNAc(b1-3)Man,-0.161
same,glycan array binding signal (z-score),[3],-0.21
same,glycan array binding signal (z-score),[4],-0.108
same,glycan array binding signal (z-score),[5],-0.145
same,glycan array binding signal (z-score),[6],1.05
same,glycan array binding signal (z-score),[7],-0.222
same,glycan array binding signal (z-score),GlcNAc(b1-4)GlcNAc,2.2
same,glycan array binding signal (z-score),[8],5.55
same,glycan array binding signal (z-score),[9],7.88
same,glycan array binding signal (z-score),[10],6.77
same,glycan array binding signal (z-score),[11],-0.16
same,glycan array binding signal (z-score),[12],1.03
same,glycan array binding signal (z-score),GlcNAc(b1-6)GalNAc,-0.088
same,glycan array binding signal (z-score),[13],-0.18
same,glycan array binding signal (z-score),Kdn(a2-3)Gal(b1-3)GalNAc,-0.023
same,glycan array binding signal (z-score),Kdn(a2-3)Gal(b1-3)GlcNAc,-0.157
same,glycan array binding signal (z-score),Kdn(a2-3)Gal(b1-4)Glc,-0.219
same,glycan array binding signal (z-score),Kdn(a2-3)Gal(b1-4)GlcNAc,-0.3
same,glycan array binding signal (z-score),[14],-0.051
same,glycan array binding signal (z-score),Kdn(a2-6)Gal(b1-4)GlcNAc,-0.187
same,glycan array binding signal (z-score),[15],-0.097
same,glycan array binding signal (z-score),[16],-1.19
same,glycan array binding signal (z-score),[17],0.733
same,glycan array binding signal (z-score),[18],-0.028
same,glycan array binding signal (z-score),Man(a1-2)Man(a1-3)Man,-0.072
same,glycan array binding signal (z-score),[19],-0.229
same,glycan array binding signal (z-score),[20],-0.252
same,glycan array binding signal (z-score),[21],0.151
same,glycan array binding signal (z-score),[22],-0.106
same,glycan array binding signal (z-score),[23],-0.183
same,glycan array binding signal (z-score),[24],-0.079
same,glycan array binding signal (z-score),[25],-0.323
same,glycan array binding signal (z-score),Man(a1-3)[Man(a1-6)]Man,-0.178
same,glycan array binding signal (z-score),[26],1.55
same,glycan array binding signal (z-score),[27],-0.09
same,glycan array binding signal (z-score),[28],-0.599
same,glycan array binding signal (z-score),[29],-0.092
same,glycan array binding signal (z-score),[30],-0.163
same,glycan array binding signal (z-score),Man(a1-6)Man,-0.104
same,glycan array binding signal (z-score),Man(b1-4)GlcNAc,-0.232
same,glycan array binding signal (z-score),MurNAc(b1-4)GlcNAc,0.57
same,glycan array binding signal (z-score),Neu5Ac(a2-3)Gal,-0.03
